# According to the supplement of paper PMC8728848:
# Some of the results follow.
# B1: GH95CBM (Clostridium perfringens) (protein)
# chain: EKVAVETSVYLSELEWKSASTGYGEIQKDASCDGNTITLKGENGEKVSYDKGIGTHAHSEIVYSLEGLDYYDYFETFVGVDQEMAGTVASISFEVYLDNEKVFDSGLMTGDTTQKHVKVPIAGKNTLKLVVKDGGDSIGSDHGSFGDAKLT
# Legend:
# Test in all cases: glycan array binding signal (z-score within array); higher = stronger binding
# Settings in all cases: glycan notation: IUPAC condensed, linker removed
# [1] = molecular target: GalNAc(b1-3)GalNAc
# Outline: (§1)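 The Consortium for Functional Glycomics database supplied 3228 glycan arrays, of which those lacking an available protein sequence were dropped. The binding signal, a within-array Z-score, was averaged across arrays of the same protein sequence and across linkers. Negative scores can be read as non-binding.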
# [2] = molecular target: GalNAc(b1-4)GlcNAc
# Outline: as §1
# [3] = molecular target: Glc(a1-4)Glc
# Outline: as §1
# [4] = molecular target: Glc(a1-6)Glc(a1-6)Glc
# Outline: as §1
# [5] = molecular target: Glc(b1-4)Glc
# Outline: as §1
# [6] = molecular target: Glc(b1-6)Glc
# Outline: as §1
# [7] = molecular target: GlcA(b1-3)Gal
# Outline: as §1
# [8] = molecular target: GlcA(b1-3)GlcNAc
# Outline: as §1
# [9] = molecular target: GlcA(b1-6)Gal
# Outline: as §1
# [10] = molecular target: GlcNAc(a1-3)Gal(b1-4)GlcNAc
# Outline: as §1
# [11] = molecular target: GlcNAc(a1-6)Gal(b1-4)GlcNAc
# Outline: as §1
# [12] = molecular target: GlcNAc(b1-2)Gal(b1-3)GalNAc
# Outline: as §1
# [13] = molecular target: GlcNAc(b1-2)Man(a1-3)[GlcNAc(b1-2)Man(a1-6)]Man(b1-4)GlcNAc(b1-4)GlcNAc
# Outline: as §1
# [14] = molecular target: GlcNAc(b1-3)Gal
# Outline: as §1
# [15] = molecular target: GlcNAc(b1-3)Gal(b1-3)GalNAc
# Outline: as §1
# [16] = molecular target: GlcNAc(b1-3)Gal(b1-4)Glc
# Outline: as §1
# [17] = molecular target: GlcNAc(b1-3)Gal(b1-4)GlcNAc
# Outline: as §1
# [18] = molecular target: GlcNAc(b1-3)Gal(b1-4)GlcNAc(b1-3)Gal(b1-4)GlcNAc
# Outline: as §1
# [19] = molecular target: GlcNAc(b1-3)GalNAc
# Outline: as §1
# [20] = molecular target: GlcNAc(b1-3)Man
# Outline: as §1
# [21] = molecular target: GlcNAc(b1-3)[GlcNAc(b1-4)][GlcNAc(b1-6)]GlcNAc
# Outline: as §1
# [22] = molecular target: GlcNAc(b1-3)[GlcNAc(b1-6)]Gal(b1-4)GlcNAc
# Outline: as §1
# [23] = molecular target: GlcNAc(b1-3)[GlcNAc(b1-6)]GalNAc
# Outline: as §1
# [24] = molecular target: GlcNAc(b1-4)Gal(b1-4)GlcNAc
# Outline: as §1
# [25] = molecular target: GlcNAc(b1-4)GlcNAc
# Outline: as §1
# [26] = molecular target: GlcNAc(b1-4)GlcNAc(b1-4)GlcNAc
# Outline: as §1
# [27] = molecular target: GlcNAc(b1-4)GlcNAc(b1-4)GlcNAc(b1-4)GlcNAc(b1-4)GlcNAc
# Outline: as §1
# [28] = molecular target: GlcNAc(b1-4)GlcNAc(b1-4)GlcNAc(b1-4)GlcNAc(b1-4)GlcNAc(b1-4)GlcNAc
# Outline: as §1
# [29] = molecular target: GlcNAc(b1-4)[GlcNAc(b1-6)]GalNAc
# Outline: as §1
# [30] = molecular target: GlcNAc(b1-6)Gal(b1-4)GlcNAc
# Outline: as §1
# [31] = molecular target: GlcNAc(b1-6)GalNAc
# Outline: as §1
# [32] = molecular target: GlcNAc3Prop(b1-4)GlcNAc
# Outline: as §1
# [33] = molecular target: Kdn(a2-3)Gal(b1-3)GlcNAc
# Outline: as §1
# [34] = molecular target: Kdn(a2-3)Gal(b1-4)GlcNAc
# Outline: as §1
# [35] = molecular target: Man(a1-2)Man(a1-2)Man(a1-3)Man
# Outline: as §1
# [36] = molecular target: Man(a1-2)Man(a1-2)Man(a1-6)[Man(a1-3)]Man
# Outline: as §1
# [37] = molecular target: Man(a1-2)Man(a1-3)Man
# Outline: as §1
# [38] = molecular target: Man(a1-2)Man(a1-3)[Man(a1-2)Man(a1-6)]Man
# Outline: as §1
# [39] = molecular target: Man(a1-2)Man(a1-3)[Man(a1-2)Man(a1-6)]Man(a1-6)[Man(a1-2)Man(a1-2)Man(a1-3)]Man
# Outline: as §1
# [40] = molecular target: Man(a1-2)Man(a1-3)[Man(a1-2)Man(a1-6)]Man(a1-6)[Man(a1-2)Man(a1-2)Man(a1-3)]Man(b1-4)GlcNAc(b1-4)GlcNAc
# Outline: as §1
# [41] = molecular target: Man(a1-2)Man(a1-3)[Man(a1-6)]Man(a1-6)[Man(a1-2)Man(a1-3)]Man(b1-4)GlcNAc(b1-4)GlcNAc
# Outline: as §1
# [42] = molecular target: Man(a1-2)Man(a1-6)[Man(a1-3)]Man(a1-6)[Man(a1-2)Man(a1-2)Man(a1-3)]Man
# Outline: as §1
# [43] = molecular target: Man(a1-2)Man(a1-6)[Man(a1-3)]Man(a1-6)[Man(a1-2)Man(a1-2)Man(a1-3)]Man(b1-4)GlcNAc(b1-4)GlcNAc
# Outline: as §1
# [44] = molecular target: Man(a1-3)[Man(a1-6)]Man
# Outline: as §1
# [45] = molecular target: Man(a1-3)[Man(a1-6)]Man(a1-6)[Man(a1-2)Man(a1-3)]Man(b1-4)GlcNAc(b1-4)GlcNAc
# Outline: as §1
binder,measurement,setting,value
B1,glycan array binding signal (z-score),[1],-0.347
same,glycan array binding signal (z-score),[2],-0.345
same,glycan array binding signal (z-score),[3],-0.351
same,glycan array binding signal (z-score),[4],0.99
same,glycan array binding signal (z-score),[5],0.94
same,glycan array binding signal (z-score),[6],-0.296
same,glycan array binding signal (z-score),[7],-0.288
same,glycan array binding signal (z-score),[8],-0.389
same,glycan array binding signal (z-score),[9],-0.227
same,glycan array binding signal (z-score),[10],0.245
same,glycan array binding signal (z-score),[11],-0.32
same,glycan array binding signal (z-score),[12],-0.336
same,glycan array binding signal (z-score),[13],0.824
same,glycan array binding signal (z-score),[14],-0.314
same,glycan array binding signal (z-score),[15],-0.276
same,glycan array binding signal (z-score),[16],-0.347
same,glycan array binding signal (z-score),[17],-0.359
same,glycan array binding signal (z-score),[18],-0.37
same,glycan array binding signal (z-score),[19],-0.302
same,glycan array binding signal (z-score),[20],-0.328
same,glycan array binding signal (z-score),[21],-0.339
same,glycan array binding signal (z-score),[22],-0.365
same,glycan array binding signal (z-score),[23],-0.328
same,glycan array binding signal (z-score),[24],-0.344
same,glycan array binding signal (z-score),[25],-0.356
same,glycan array binding signal (z-score),[26],-0.364
same,glycan array binding signal (z-score),[27],-0.133
same,glycan array binding signal (z-score),[28],-0.281
same,glycan array binding signal (z-score),[29],-0.339
same,glycan array binding signal (z-score),[30],-0.319
same,glycan array binding signal (z-score),[31],-0.35
same,glycan array binding signal (z-score),[32],-0.351
same,glycan array binding signal (z-score),[33],-0.337
same,glycan array binding signal (z-score),[34],-0.204
same,glycan array binding signal (z-score),[35],-0.16
same,glycan array binding signal (z-score),[36],-0.306
same,glycan array binding signal (z-score),[37],-0.318
same,glycan array binding signal (z-score),[38],-0.341
same,glycan array binding signal (z-score),[39],1.43
same,glycan array binding signal (z-score),[40],-0.359
same,glycan array binding signal (z-score),[41],-0.281
same,glycan array binding signal (z-score),[42],-0.363
same,glycan array binding signal (z-score),[43],-0.3
same,glycan array binding signal (z-score),[44],-0.3
same,glycan array binding signal (z-score),[45],-0.345
